From PubChem BioAssay (Tox21)
Several values for one entry are separate records, joined by “and”; a condition that tells them apart may be missing. Equal values may be shown once. Inconclusive results, whose numbers are uncertain, are shown with a selection of clear calls. For some assays here: Potencies beside an inconclusive call are fits to weak or partial responses and may not hold up. Some compounds were tested as several samples or in several runs, with calls that do not always agree. Activity calls are given as the source filed them. Calls follow the shape of the dose curve; as a rule, active = well fitted curve in the direction sought with a large enough effect in the repeat runs; inconclusive = weak or mixed curves; inactive = no such curve, though single readings can be large; an effect the other way counts as inactive or inconclusive.

Tests used:
[1] = qHTS RealTime-Glo MT Cell Viability Assay in HEK293 cells - 32 hour (AID 1224868); also: nearly all actives have a fitted effect of over 50% in size
Summary of the method: (§1)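 Cells + reagent dispensed (600 cells/well, HEK293) → 5 h at 37 C/5% CO2 → 23 nL compound in DMSO pinned → 40 h at 37 C → luminescence read at 0, 8, 16, 24, 32, 40 h.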

[2] = A CellTox Green Cytotoxicity Assay to monitor cytotoxicity in HEK293 cells - 0 hour (AID 1224869); also: nearly all actives have a fitted effect of over 50% in size
Summary of the method: (§2)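 Read-out: fluorescence of a cell-impermeant cyanine dye staining DNA of dead cells, proportional to cytotoxicity. HEK293, 600 cells/well with reagent, compound (23 nL DMSO) added after 5 h; reads at 0, 8, 16, 24, 32, 40 h.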

[3] = A CellTox Green Cytotoxicity Assay to monitor cytotoxicity in HEK293 cells - 40 hour (AID 1224871); also: nearly all actives have a fitted effect of over 45% in size
Summary of the method: as §2

[4] = A CellTox Green Cytotoxicity Assay to monitor cytotoxicity in HEK293 cells - 24 hour (AID 1224875); also: nearly all actives have a fitted effect of over 45% in size
Summary of the method: as §2

[5] = qHTS RealTime-Glo MT Cell Viability Assay in HEK293 cells - 40 hour (AID 1224874); conditions: RealTime-Glo luminescence; max response: stronger effect = lower value; also: nearly all actives have a fitted effect of over 50% in size; as to max response: % is scaled to controls: 0 for no effect and ±100 for the full control effect
Summary of the method: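 Luminescence readout at each listed time point; HEK293, 600 cells/well, RealTime-Glo MT reagent added with cells; compounds pinned (23 nL in DMSO) after 5 h at 37 C; continuous culture at 37 C.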

[6] = qHTS RealTime-Glo MT Cell Viability Assay in HepG2 cells - 8 hour (AID 1224873); also: nearly all actives have a fitted effect of over 55% in size
Summary of the method: (§3)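 HepG2 cells (600/well) mixed with RealTime-Glo MT reagent, settled 5 h at 37 C/5% CO2 before compound addition. Nonlytic NanoLuc luminescence from viable-cell prosubstrate reduction read repeatedly during 40 h treatment at 37 C.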

[7] = qHTS RealTime-Glo MT Cell Viability Assay in HEK293 cells - 16 hour (AID 1224872); also: nearly all actives have a fitted effect of over 50% in size
Summary of the method: as §1

[8] = qHTS RealTime-Glo MT Cell Viability Assay in HepG2 cells - 40 hour (AID 1224870); also: nearly all actives have a fitted effect of over 50% in size
Summary of the method: as §3
Potency is read from the fitted curve at half-maximal effect; tags tell the direction and shape of the fitted curve.

CCOc1cc(C=O)ccc1O
Potency [1]: inactive

CSc1nc(NC(C)C)nc(NC(C)C)n1
Potency [1]: inconclusive: 43.6 µM [cytotoxic, partial curve, poor fit]

C=CCC1(C(C)CC)C(=O)NC(=O)NC1=O (stereo not given)
Potency [1]: inactive

CC(=O)CCc1ccc2c(c1)OCO2
Potency [1]: inactive

CC(Cc1ccccc1)NCCn1cnc2c1c(=O)n(C)c(=O)n2C (stereo not given)
Potency [1]: active: 21.6 µM

CCCCN(CCCCO)N=O
Potency [1]: inactive

C=CC(=O)OCC(C)O (stereo not given)
Potency [1]: inconclusive: 25.3 µM [rising, partial curve, poor fit]

Nc1nc(=S)[nH][nH]1
Potency [1]: inactive

O=S(=O)(Cl)Cl
Potency [1]: inconclusive: 53 µM [rising, single point]

CCCCc1ccccc1
Potency [1]: inactive

NS(=O)(=O)C(F)(F)C(F)(F)C(F)(F)C(F)(F)C(F)(F)C(F)(F)C(F)(F)C(F)(F)F
Potency [1]: inactive

CN(C)C(=O)C(c1ccccc1)c1ccccc1
Potency [1]: inactive

O=[N+]([O-])c1ccc2ccc3cccc4ccc1c2c34
Potency [1]: inactive | Potency [2]: inconclusive: 54.9 µM [activator, single point] | Potency [3]: inconclusive: 54.9 µM [activator, single point] | Potency [4]: inconclusive: 61.6 µM [activator, single point]

ClCc1ccc(Cl)cc1Cl
Potency [1]: inconclusive: 54.9 µM [cytotoxic, single point] | Potency [3]: inconclusive: 61.6 µM [activator, single point] | Potency [5]: inconclusive: 54.9 µM [cytotoxic, single point] | Potency [4]: inconclusive: 61.6 µM [activator, single point]

CCOP(=S)(OCC)SCn1c(=O)oc2cc(Cl)ccc21
Potency [1]: inconclusive: 21.9 µM [cytotoxic, partial curve] | Potency [3]: inconclusive: 66.1 µM [activator, single point] | Potency [6]: inconclusive: 49 µM [falling, partial curve, poor fit] | Potency [5]: active: 29.5 µM and inconclusive: 54.9 µM [cytotoxic, single point]

c1ccc(N=Nc2ccccc2)cc1
Potency [1]: inactive | Potency [3]: inconclusive: 49.9 µM [activator, partial curve, poor fit] and inconclusive: 49 µM [activator, single point] | max response [5]: inactive: -14.7% and inactive: -11.3% | Potency [4]: inconclusive: 38.9 µM [activator, partial curve, poor fit]

Oc1cc(Cl)ccc1Cl
Potency [1]: inactive | Potency [3]: inactive

O=C(O)C1(c2ccc3c(c2)OC[C@H](Cc2ccc(-c4ccccc4)cc2)[C@H]3O)CCCC1
Potency [1]: inconclusive: 54.9 µM [cytotoxic, single point] | Potency [3]: active: 34.7 µM | Potency [7]: inconclusive: 54.9 µM [cytotoxic, single point] | Potency [5]: inconclusive: 54.9 µM [cytotoxic, single point] | Potency [4]: active: 38.9 µM

CCCCCCCCn1cc[n+](C)c1
Potency [1]: inconclusive: 3.09 µM [cytotoxic, full curve] | Potency [3]: inconclusive: 43.6 µM [activator, partial curve, poor fit] and inconclusive: 15.6 µM [activator, full curve, poor fit] | Potency [7]: inconclusive: 3.44 µM [cytotoxic, full curve] [middle of 4 runs] | Potency [5]: active: 3.46 µM [middle of 4 runs]

O=C(CCl)Nc1ccccc1
Potency [1]: inconclusive: 7.76 µM [rising, partial curve] | Potency [3]: inconclusive: 54.9 µM [activator, single point] | Potency [7]: inconclusive: 38.9 µM [cytotoxic, partial curve]

CCOCN(C(=O)CCl)c1c(C)cccc1CC
Potency [1]: inconclusive: 17.4 µM [rising, partial curve, poor fit] | Potency [3]: inconclusive: 54.9 µM [activator, single point]

CCOP(=O)(O)OCC (tested in a mixture with another compound)
Potency [1]: inactive and active: 4.33 µM | Potency [8]: active: 43.3 µM | Potency [6]: inconclusive: 54.5 µM [falling, partial curve]

C#CCC1=C(C)C(OC(=O)C2C(C=C(C)C)C2(C)C)CC1=O (stereo not given)
Potency [1]: inconclusive: 27.4 µM [cytotoxic, partial curve] | Potency [3]: inactive | Potency [7]: inconclusive: 27.4 µM [cytotoxic, partial curve] | Potency [5]: inconclusive: 30.7 µM [cytotoxic, partial curve]

N#Cc1nn(-c2c(Cl)cc(C(F)(F)F)cc2Cl)c(N)c1S(=O)C(F)(F)F (stereo not given)
Potency [1]: active: 22 µM and inconclusive: 21.3 µM [cytotoxic, partial curve] | Potency [3]: inconclusive: 55.3 µM [activator, single point] | Potency [6]: inconclusive: 55.3 µM [falling, partial curve, poor fit] | Potency [5]: inconclusive: 21.3 µM [cytotoxic, partial curve]

O=C1C(=O)c2cccc3cccc1c23
Potency [1]: inconclusive: 15.5 µM [rising, full curve] | Potency [8]: active: 17.4 µM | Potency [7]: inconclusive: 12.3 µM [rising, full curve] | Potency [6]: inconclusive: 15.5 µM [rising, full curve] | Potency [5]: inconclusive: 15.5 µM [rising, full curve]

C[C@@H]1CC2=CC(=O)CC[C@@H]2[C@H]2CC[C@@]3(C)[C@@H](CC[C@]3(C)O)[C@@H]21
Potency [1]: inconclusive: 19 µM [cytotoxic, partial curve] | Potency [3]: inactive | Potency [7]: inconclusive: 13.4 µM [cytotoxic, partial curve, poor fit] | Potency [5]: inconclusive: 19 µM [cytotoxic, partial curve]

COP(=O)(OC)O/C(=C/Cl)c1cc(Cl)c(Cl)cc1Cl
Potency [1]: inconclusive: 65.1 µM [cytotoxic, single point] | Potency [3]: inconclusive: 51.7 µM [activator, single point] | Potency [7]: inconclusive: 58.1 µM [cytotoxic, partial curve, poor fit] | Potency [5]: inconclusive: 58.1 µM [cytotoxic, single point]

Nc1ccc(Cl)cc1C(=O)c1ccccc1
Potency [1]: inconclusive: 38.9 µM [cytotoxic, partial curve] | Potency [3]: inconclusive: 54.9 µM [activator, single point] | Potency [7]: inconclusive: 38.9 µM [cytotoxic, partial curve] | Potency [5]: inconclusive: 38.9 µM [cytotoxic, partial curve] | Potency [4]: inconclusive: 61.6 µM [activator, single point]

CCC(C)(C)O
Potency [1]: inactive | Potency [3]: inactive | max response [5]: inactive: 6.83%

CN
Potency [1]: inconclusive: 57.2 µM [rising, partial curve, poor fit] | Potency [3]: inactive | Potency [5]: inconclusive: 57.2 µM [rising, partial curve, poor fit]

CON(C)C(=O)Nc1ccc(Br)c(Cl)c1
Potency [1]: inconclusive: 27.5 µM [cytotoxic, partial curve] | Potency [7]: inconclusive: 24.5 µM [cytotoxic, full curve]

c1cc2c3c(cccc3c1)CC2
Potency [1]: inactive | Potency [3]: active: 43.6 µM

CCC[N+](=O)[O-]
Potency [1]: inconclusive: 53.9 µM [cytotoxic, single point] | Potency [3]: active: 38.2 µM | Potency [7]: inconclusive: 10.8 µM [rising, full curve] | Potency [5]: inconclusive: 60.5 µM [cytotoxic, single point]

Oc1ccc(Cl)c(Cl)c1Cl
Potency [1]: inconclusive: 57 µM [cytotoxic, single point] | Potency [3]: inconclusive: 57 µM [activator, single point] | Potency [7]: inconclusive: 57 µM [cytotoxic, partial curve] | Potency [5]: inconclusive: 57 µM [cytotoxic, partial curve, poor fit] | Potency [4]: inconclusive: 57 µM [activator, single point]

N#C/C=C/C#N
Potency [1]: inconclusive: 64.5 µM [cytotoxic, single point] | Potency [3]: inconclusive: 64.5 µM [activator, single point] | Potency [7]: inconclusive: 57.5 µM [cytotoxic, single point] | Potency [5]: inconclusive: 57.5 µM [cytotoxic, single point]

CN(C)CCC#N
Potency [1]: inconclusive: 22.4 µM [rising, single point] | Potency [3]: inactive

CN(C)c1ccc(N=Nc2ccccc2)cc1
Potency [1]: inconclusive: 24.6 µM [cytotoxic, partial curve] | Potency [3]: inconclusive: 61.7 µM [activator, single point] | Potency [7]: inconclusive: 19.5 µM [cytotoxic, full curve] | Potency [6]: inconclusive: 49 µM [falling, partial curve, poor fit] | Potency [5]: inconclusive: 30.9 µM [cytotoxic, partial curve, poor fit] | Potency [4]: inconclusive: 61.7 µM [activator, single point]

O=Cc1ccco1
Potency [1]: inconclusive: 21.9 µM [rising, single point] | Potency [3]: active: 21.1 µM and inconclusive: 21.9 µM [activator, single point] | Potency [7]: inconclusive: 21.9 µM [rising, single point] | Potency [5]: inconclusive: 21.9 µM [rising, single point]

O=NN1CCCC1
Potency [1]: inactive | Potency [3]: inconclusive: 64.5 µM [activator, single point]
